From the supplement of paper PMC12462457
Structures can show the parent of a compound that is named as a salt. ± gives the standard deviation of the averaged measurements. This is one part of the list.

Test system: OVCAR8
Test: cell count relative to DMSO vehicle (fold change); OVCAR8 is a high-grade serous ovarian cancer line and CX-5461 an RNA polymerase I inhibitor; higher = more surviving senescent cells (less killing)
Settings: senescence inducer: CX-5461 3 µM 48 h, then 6 d recovery (CX senescent), exposure time 24 h

Compound | cell count (compound dose 1 µM) | cell count (compound dose 5 µM)
CCCCc1ccc(NC(C)=O)c(C)c1 | 0.843 ± 0.018 | 1.11 ± 0.28
O=C1NC(=O)/C(=C\c2cccc(C(F)(F)F)c2)S1 | 1.09 ± 0.38 | 1.12 ± 0.17
O=C1/C(=C/c2cccs2)CC/C1=C\c1cccs1 | 1.18 ± 0.22 | 1.13 ± 0.17
C[N+](C)(C)CCOP(=O)(O)OP(=O)([O-])OC[C@H]1O[C@@H](n2ccc(N)nc2=O)[C@H](O)[C@@H]1O | 1.16 ± 0.18 | 0.991 ± 0.054
CC1(C)C[C@@H](O)[C@]2(C)CC[C@]3(C)C(=CC[C@@H]4[C@@]5(C)CC[C@H](O)[C@](C)(CO)[C@@H]5CC[C@]43C)[C@@H]2C1 [Soyasapogenol B] | 1.1 ± 0.15 | 1.15 ± 0.16
C[C@@H]1O[C@@H](O[C@H]2[C@H](O[C@H]3[C@H](O[C@H]4CC[C@]5(C)[C@H]6CC=C7[C@@H]8CC(C)(C)CC[C@]8(C(=O)O)CC[C@@]7(C)[C@]6(C)CC[C@H]5C4(C)C)OC[C@H](O)[C@@H]3O)O[C@H](CO)[C@@H](O)[C@@H]2O)[C@H](O)[C@H](O)[C@H]1O [Raddeanin A] | 1.4 ± 0.37 | 0.008 ± 0.0014
CCCCCN(C)CCC(O)(P(=O)(O)O)P(=O)(O)O | 1.06 ± 0.097 | 1.19 ± 0.28
CCS(=O)(=O)Nc1ccc(Oc2ccc(F)cc2F)c(-c2cn(C)c(=O)c3[nH]ccc23)c1 [Mivebresib] | 1.071 ± 0.0064 | 1.03 ± 0.061
Oc1ccc2c(c1)OC[C@]1(O)Cc3cc(O)c(O)cc3[C@H]21 [Brazilin] | 1.07 ± 0.11 | 1.044 ± 0.0028
O=c1ccc2cc3ccoc3cc2o1 [Psoralen] | 1.1 ± 0.14 | 0.929 ± 0.1
C=C(C)[C@@H]1CC[C@]2(C(=O)O)CC[C@]3(C)[C@H](CC[C@@H]4[C@@]5(C)CC[C@H](O)C(C)(C)[C@@H]5CC[C@]43C)[C@@H]12 [Betulinic acid] | 1.13 ± 0.26 | 1.1 ± 0.19
CONC(=O)c1ccccc1Nc1cc(Nc2cc(C)nn2C(C)C)ncc1Cl | 1.2 ± 0.016 | 1.26 ± 0.15
C=CCc1ccc(O)c(OC)c1 | 1.11 ± 0.068 | 1.08 ± 0.11
OC[C@@H](O)[C@@H](O)[C@H](O)[C@H](O)CO | 1.04 ± 0.11 | 1.05 ± 0.092
Oc1ccc(C2CNCCc3c2cc(O)c(O)c3Cl)cc1 (stereo not drawn) | 1.13 ± 0.074 | 0.977 ± 0.089
CC(C(=O)O)c1cccc(Oc2ccccc2)c1 (stereo not drawn) [Fenoprofen (Calcium hydrate)] | 1.17 ± 0.1 | 1.15 ± 0.25
O=C1NC(=O)/C(=C/c2ccc3nccc(-c4ccncc4)c3c2)S1 | 0.967 ± 0.2 | 0.848 ± 0.12
O=C1NC(=O)C(c2ccccc2[N+](=O)[O-])=C1Nc1ccc(O)c(Cl)c1 | 1.25 ± 0.2 | 1.21 ± 0.25
OCCN1CCN(CC/C=C2/c3ccccc3Sc3ccc(C(F)(F)F)cc32)CC1 [Flupentixol dihydrochloride] | 1.12 ± 0.13 | 1.137 ± 0.0035
CC(=O)Nc1cccc(-n2c(=O)n(C3CC3)c(=O)c3c(Nc4ccc(I)cc4F)n(C)c(=O)c(C)c32)c1 | 1.18 ± 0.073 | 1.06 ± 0.035
CC(C)c1c(C(=O)Nc2ccccc2)c(-c2ccccc2)c(-c2ccc(F)cc2)n1CC[C@@H](O)C[C@@H](O)CC(=O)O [Atorvastatin (hemicalcium salt)] | 1.15 ± 0.26 | 0.923 ± 0.14
Cc1ncc(C[n+]2csc(CCO)c2C)c(N)n1 | 0.995 ± 0.023 | 1.07 ± 0.082
CC(C)(C)c1cnc(CSc2cnc(NC(=O)C3CCNCC3)s2)o1 | 0.996 ± 0.15 | 1.19 ± 0.019

Compound | cell count (compound dose 1 µM) | cell count (compound dose 5 µM)
COc1ccc(-c2cc(=O)c3c(O)c(OC)c(OC)cc3o2)cc1O [Eupatorin] | 1.17 ± 0.1 | 1.17 ± 0.23
CC(=Cc1ccc(C(=O)O)cc1)c1ccc2c(c1)C(C)(C)CCC2(C)C | 1.07 ± 0.11 | 1.02 ± 0.044
COC(=O)Nc1nc2cc(C(=O)c3cccs3)ccc2[nH]1 [Nocodazole] | 1.21 ± 0.051 | 1.15 ± 0.03
CN1CCN(C(=O)/C=C/c2ccc([N+](=O)[O-])o2)CC1 | 1.14 ± 0.16 | 1.07 ± 0.086
CC(=O)Nc1ccc(C(=O)Nc2ccccc2N)cc1 [Tacedinaline (CI994)] | 1.2 ± 0.26 | 1.17 ± 0.57
COc1cc2c(Nc3ccc(NC(=O)c4ccccc4)cc3)ncnc2cc1OCCCN1CCOCC1 | 1.15 ± 0.12 | 1.12 ± 0.088
O=S(=O)(c1ccc2c(c1)C(=NO)c1cc(S(=O)(=O)N3CCCCC3)ccc1-2)N1CCCCC1 | 0.027 ± 0.0042 | 0.0685 ± 0.0064
CNC(=O)COc1cc2cc(Nc3nc(N4C[C@H](C)C[C@H](C)C4)ncc3Cl)ccc2n(C)c1=O | 1.02 ± 0.052 | 1.07 ± 0.028
CC1(C)CC[C@]2(C(=O)O)CC[C@]3(C)C(=CC[C@@H]4[C@@]5(C)CC[C@H](O[C@@H]6O[C@H](C(=O)O)[C@@H](O)[C@H](O[C@@H]7OC[C@@H](O)[C@H](O)[C@H]7O)[C@H]6O)C(C)(C)[C@@H]5CC[C@]43C)[C@@H]2C1 [Momordin Ic] | 1.02 ± 0.037 | 1.12 ± 0.07
COc1ccc([C@@H]2CC(=O)c3c(O)cc(O)cc3O2)cc1O [Hesperetin] | 1.16 ± 0.25 | 1.2 ± 0.29
O=c1cc(-c2ccccc2)oc2c(O)c(O)ccc12 | 0.998 ± 0.15 | 0.995 ± 0.12
Oc1cc(O)c2c(c1)O[C@H](c1ccc(O)c(O)c1)[C@@H](O)C2 | 0.931 ± 0.031 | 0.977 ± 0.14
COc1cc(C(=O)OCCCCN=C(N)N)cc(OC)c1O[C@@H]1O[C@H](C(=O)O)[C@@H](O)[C@H](O)[C@H]1O | 1.07 ± 0.11 | 1.11 ± 0.29
C=Cc1cc(O)cc2nc(-c3ccc(O)c(F)c3)oc12 [Prinaberel] | 1.17 ± 0.12 | 1.21 ± 0.24
CN[C@@H](C)C(=O)N[C@H](C(=O)N1CCC[C@H]1c1nc(C(=O)c2ccc(F)cc2)cs1)C1CCCCC1 | 0.591 ± 0.083 | 0.617 ± 0.055
Cc1c(C(=O)Nc2ccc(Oc3ccnc4[nH]cc(-c5ccccc5)c34)c(F)c2)c(=O)n(-c2ccc(F)cc2)n1C | 1.31 ± 0.28 | 1.49 ± 0.2
COc1ccc(-c2ccc3c(N4CCOC[C@@H]4C)nc(N4CCOC[C@@H]4C)nc3n2)cc1CO | 0.959 ± 0.03 | 0.941 ± 0.11
COc1cc(C)c(/C=C/C(C)=C/C=C/C(C)=C/C(=O)O)c(C)c1C [Acitretin] | 1.11 ± 0.17 | 0.982 ± 0.23
C[n+]1cccc(C(=O)[O-])c1 | 1.06 ± 0.11 | 1.11 ± 0.12
COc1cc2c(NC3CCN(C)CC3)cc(-c3ccc(C)o3)nc2cc1OCCCN1CCCC1 | 1.11 ± 0.072 | 1.24 ± 0.14
C/C(=N\NC(=S)N1CCC1)c1ccccn1 | 1.18 ± 0.22 | 1.43 ± 0.15
O=c1[nH]c(=O)n([C@H]2C[C@H](O)[C@@H](CO)O2)cc1F [Floxuridine] | 0.998 ± 0.21 | 1.08 ± 0.15
O=C1C(=O)N(Cc2ccc(Cl)c(Cl)c2)c2ccccc21 | 0.966 ± 0.16 | 1.05 ± 0.27

Compound | cell count (compound dose 1 µM) | cell count (compound dose 5 µM)
COc1cccc(-c2cc(F)c(Nc3ncccc3C(=O)O)c(F)c2)c1 | 1.05 ± 0.17 | 1.1 ± 0.13
O=C(O)C(Cc1ccccc1[N+](=O)[O-])=NNc1nc(-c2ccc(Cl)c(Cl)c2)cs1 (mixture of isomers) | 1.21 ± 0.2 | 1.18 ± 0.036
CCC(C)(C)C(=O)C(=O)N1CCC[C@H]1C(=O)OCCCc1cccnc1 | 0.819 ± 0.26 | 1.21 ± 0.024
CN1CCCC(CN2c3ccccc3Sc3ccccc32)C1 (stereo not drawn) [Mepazine (hydrochloride)] | 1.03 ± 0.047 | 0.949 ± 0.17
CN[C@@H](C)C(=O)N[C@H](C(=O)N1CCC[C@H]1C(=O)Nc1snnc1-c1ccccc1)C1CCCCC1 | 0.624 ± 0.29 | 0.769 ± 0.061
O=C(/C=C/c1ccc2ccc(C(F)(F)F)cc2n1)c1ccncc1 | 1.21 ± 0.13 | 0.135 ± 0.05
Cc1ccc(/C=N/NC(=O)c2ccccc2Oc2ccccc2)o1 | 1.17 ± 0.25 | 1.02 ± 0.3
CC(C)(O)CC[C@@H](O)[C@](C)(O)[C@H]1CC[C@@]2(O)C3=CC(=O)[C@@H]4C[C@@H](O)[C@@H](O)C[C@]4(C)[C@H]3CC[C@]12C | 1.08 ± 0.07 | 1.03 ± 0.13
CCC[C@H](NC(=O)/C(C#N)=C/c1cccc(Br)n1)c1ccccc1 [Degrasyn] | 1.03 ± 0.26 | 0.0685 ± 0.005
CC(=O)Nc1c(I)c(NC(C)=O)c(I)c(C(=O)O)c1I | 1.16 ± 0.19 | 1.17 ± 0.17
CC(=O)Nc1c(I)c(NC(C)=O)c(I)c(C(=O)O)c1I [Sodium diatrizoate] | 1.13 ± 0.12 | 1.01 ± 0.15
O=C(Nc1cccc(-c2nncn2C2CC2)c1)c1cc(-n2cnc(C3CC3)c2)ccn1 | 1.16 ± 0.33 | 1.19 ± 0.31
O=c1n(CC2CO2)c(=O)n(CC2CO2)c(=O)n1CC1CO1 (stereo not drawn) [Triglycidyl isocyanurate] | 1.21 ± 0.2 | 1.34 ± 0.32
N#CN=C(NCCCCCCOc1ccc(Cl)cc1)Nc1ccncc1 | 1.06 ± 0.14 | 1.02 ± 0.11
CCOC(=O)c1ccc(N2NC(=O)C(=Cc3ccc([N+](=O)[O-])o3)C2=O)cc1 | 1.07 ± 0.15 | 1.03 ± 0.25
CCNC(=O)c1noc(-c2cc(Cl)c(O)cc2O)c1-c1ccc(OC)cc1 | 1.22 ± 0.28 | 1.34 ± 0.15
CC(C)=CCC[C@](C)(O[C@@H]1O[C@H](CO)[C@@H](O)[C@H](O)[C@H]1O)[C@H]1CC[C@]2(C)[C@@H]1[C@H](O)C[C@@H]1[C@@]3(C)CC[C@H](O)C(C)(C)[C@@H]3[C@@H](O[C@@H]3O[C@H](CO)[C@@H](O)[C@H](O)[C@H]3O[C@@H]3OC[C@@H](O)[C@H](O)[C@H]3O)C[C@]12C [Notoginsenoside R1] | 1.06 ± 0.14 | 1.1 ± 0.2
C/C=C(/C)C(=O)OC(C)(C)[C@@H]1Cc2c(ccc3ccc(=O)oc23)O1 [Columbianadin] | 1.08 ± 0.088 | 1.04 ± 0.046
COC(=O)CC[C@H](NC(=O)[C@H](CC(=O)OC)NC(=O)OCc1ccccc1)C(=O)N[C@H](C(=O)N[C@@H](CC(=O)OC)C(=O)CF)C(C)C | 1.03 ± 0.11 | 0.999 ± 0.076
C[C@]12C=CC(=O)C=C1CC[C@@H]1[C@@H]2C(=O)C[C@@]2(C)[C@H]1CC[C@]2(O)C(=O)CO | 1.15 ± 0.086 | 1.14 ± 0.035
Fc1ccc(Nc2nc3ccccc3nc2Nc2ccc(F)cc2)cc1 | 0.898 ± 0.11 | 1.03 ± 0.19
Oc1ccc(Nc2nc(-c3ccc(Cl)cc3)cs2)cc1 | 1.16 ± 0.047 | 1.07 ± 0.057
O=C1O[C@H]2[C@@H]3OC(=O)c4cc(O)c(O)c(O)c4-c4c(cc(O)c(O)c4O)C(=O)OC[C@H]2O[C@@H](OC(=O)c2cc(O)c(O)c(O)c2)[C@@H]3OC(=O)c2cc(O)c(O)c3c2[C@@H]2C1=CC(=O)[C@](O)(O3)C2(O)O [Geraniin] | 1.15 ± 0.26 | 1.05 ± 0.18
